Several values for one entry are separate records, joined by “and”; a condition that tells them apart may be missing. Equal values may be shown once. Whole data set: some 5,300 compounds, median “PER2::LUC luminescence relative to vehicle control” near 0.96, cut for the highest 2% near 1.3. The list shows a part of the results.
Test system: mPer2Luc MEF
Experiment: PER2::LUC luminescence relative to vehicle control (fold of vehicle); higher = higher PER2::LUC reporter signal
Settings: 10 µM
Method in brief: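 The value is PER2::LUC luminescence expressed as fold of vehicle control. Mouse embryonic fibroblasts carrying the mPer2Luc reporter were seeded at ~3000 cells per well in 384-well plates and grown in DMEM with 10% FBS at 37 °C and 5% CO2. Compounds from commercial libraries were added at 10 μM 48 h after seeding, and luminescence was read with the ONE-Glo luciferase assay system 24 h and 30 h after treatment, followed by an alamarBlue viability assay.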

Row | SMILES | PER2::LUC luminescence (time after treatment 24 h) | PER2::LUC luminescence (time after treatment 30 h)
1 | O=C(Nc1ccccc1)OCC(CN1CCCCC1)OC(=O)Nc1ccccc1 (centres undefined) | 0.869 | 0.908
2 | N=C(N)c1ccc(N=NNc2ccc(C(=N)N)cc2)cc1 | 0.881 | 0.873
3 | COc1c(O)cc(O)cc1O | 1.05 | 0.995
4 | CCN(CC)CC1CCCCN1CC(=O)N1c2ccccc2C(=O)Nc2cccnc21 (centres undefined) | 0.951 and 0.984 | 1.01 and 0.918
5 | CC(C)(C)OC(=O)N[C@H]1CCCCC/C=C\[C@@H]2C[C@@]2(C(=O)NS(=O)(=O)C2CC2)NC(=O)[C@@H]2C[C@@H](OC(=O)N3Cc4cccc(F)c4C3)CN2C1=O | 1.14 | 1.17
6 | CC1(C)C(=O)N(CCN2CCC(C(=O)c3ccc(F)cc3)CC2)c2ccccc21 | 1.08 | 0.683
7 | CCCC(=O)Nc1ccc(OCC(O)CNC(C)C)c(C(C)=O)c1 (centres undefined) | 0.797 | 0.752
8 | COc1ccnc2[nH]cc(C(=O)C(=O)N3CCN(C(=O)c4ccccc4)C[C@H]3C)c12 | 1.03 and 1.15 | 0.897 and 1.09
9 | C[C@@H]1O[C@@H](OC[C@H]2O[C@@H](Oc3c(-c4ccc(O)c(O)c4)oc4cc(O)cc(O)c4c3=O)[C@H](O)[C@@H](O)[C@@H]2O)[C@H](O)[C@H](O)[C@H]1O | 1.06 and 1.09 | 1.1 and 1.05
10 | O=C(O)CC1CCC2(CC1)CCN(c1cc(OC(F)(F)F)ccc1Cl)CC2 | 1.05 | 0.952
11 | C[N+](C)(C)CCC(=O)c1cccc2ccccc12 | 0.943 | 1.05
12 | CCn1cnc(C(=O)NC)c1C(=O)NC | 1.03 | 0.981
13 | CN1[C@@H]2CC[C@H]1C[C@@H](OC(c1ccccc1)c1ccccc1)C2 | 0.829 | 0.76
14 | CC(=O)Nc1ccc(OCC(O)CNC(C)C)cc1 (centres undefined) | 1.03 | 0.971
15 | CN(C)C(=O)N[C@H]1CC[C@H](CCN2CCN(c3cccc(Cl)c3Cl)CC2)CC1 | 1.09 | 1.07
16 | CO/N=C(\C(=O)N[C@@H]1C(=O)N2C(C(=O)O)=C(CSC(=O)c3ccco3)CS[C@H]12)c1csc(N)n1 | 0.958 and 0.754 | 0.911 and 1.05
17 | COc1cc(C)c(Cc2cnc(N)nc2N)cc1OC | 0.999 | 0.932
18 | Cc1c(C)c2c(c(C)c1O)CCC(C)(CCCC(C)CCCC(C)CCCC(C)C)O2 (centres undefined) | 0.829 | 1.01
19 | Cc1cccc(C2CN(C)CCc3c2cc(O)c(O)c3Cl)c1 (centres undefined) | 1.03 | 0.884
20 | CN1CCN(c2ccc(Nc3cc(-c4cccc(-n5ccc6cc(C7CC7)cc(F)c6c5=O)c4CO)cn(C)c3=O)nc2)CC1 | 0.601 | 0.569
21 | Cc1nc(N=Nc2cc(S(=O)(=O)O)c3cc([N+](=O)[O-])cc(S(=O)(=O)O)c3c2)c(COP(=O)(O)O)c(C=O)c1O | 0.917 | 1.08

Row | SMILES | PER2::LUC luminescence (time after treatment 24 h) | PER2::LUC luminescence (time after treatment 30 h)
22 | NC[C@H]1O[C@H](O[C@H]2[C@H](O)[C@@H](O[C@H]3O[C@H](CO)[C@@H](O)[C@H](N)[C@H]3O)[C@H](N)C[C@@H]2N)[C@H](N)[C@@H](O)[C@@H]1O | 1 and 0.926 | 0.946 and 0.939
23 | CN(C)C(=O)c1cc2cnc(Nc3ccc(N4CCNCC4)cn3)nc2n1C1CCCC1 | 0.795 and 0.733 | 0.895 and 0.779
24 | CC(=O)O[C@]1(C(C)=O)CC[C@H]2[C@@H]3C=C(C)C4=CC(=O)CC[C@]4(C)[C@H]3CC[C@@]21C | 0.839 | 1.09
25 | C=C1[C@H](CO)[C@@H](O)C[C@@H]1n1cnc2c(=O)[nH]c(N)nc21 | 1.02 and 1.14 | 1.04 and 1.12
26 | Nc1nnc(-c2cccc(Cl)c2Cl)c(N)n1 | 1.2 | 0.907
27 | Cc1cc(Nc2cc(CN3CCOCC3)c3nc(C)c(Cc4ccc(Cl)cc4F)n3n2)n[nH]1 | 0.51 | 0.277
28 | CC[C@@]1(O)C(=O)OCc2c1cc1n(c2=O)Cc2cc3c(CN(C)C)c(O)ccc3nc2-1 | 0.491 | 0.411
29 | Oc1cc(O)cc(/C=C/c2ccc(O)c(O)c2)c1 | 1.15 | 1.09
30 | CC(C)(S)[C@H](N)C(=O)O | 1.02 | 0.948
31 | Nc1nc(=O)[nH]cc1F | 1.05 | 1.06 and 1.16
32 | O=C(O)/C=C(\CC(=O)O)C(=O)O | 0.943 | 0.954
33 | CCN1CCN(c2ccc(Nc3cc(N(C)C(=O)Nc4c(Cl)c(OC)cc(OC)c4Cl)ncn3)cc2)CC1 | 1.09 and 0.869 | 0.915 and 0.968
34 | C[C@@H](C[C@H](N)C(=O)O)C(=O)O | 1 | 0.924
35 | OCC(O)C(O)C(O)CO (centres undefined) | 0.99 and 0.998 | 0.963 and 0.951
36 | COc1cc(-c2cc(-c3cccc(O)c3)cnc2N)cc(OC)c1OC | 0.125 | 0.295
37 | O=c1c(-c2ccccc2)c1-c1ccccc1 | 0.958 | 1.03
38 | COc1cc2ncnc(Nc3ccc(O)c(Br)c3)c2cc1OC | 0.727 | 0.668
39 | O=C(O)c1ccc(O)c2ncccc12 | 1.14 | 1.03
40 | O=C(c1ccc(Cl)cc1Cl)n1nnc2ccccc21 | 0.879 | 0.945
41 | COc1cc(O)c(C(=O)c2ccccc2)cc1O | 0.627 | 0.776
42 | O=Cc1ccc2cccc(O)c2n1 | 1.1 | 0.962

From the supplement of paper PMC9334596
